The results in this text go back to article PMC11603075 (Communications Biology, 2024).

For this assay, the target named is T1, KDM4E (Homo sapiens, UniProt B2RXH2).
T1 construct: KDM4E1–337; made in house; host or cells: E. coli
T1 sequence (B2RXH2 1-337): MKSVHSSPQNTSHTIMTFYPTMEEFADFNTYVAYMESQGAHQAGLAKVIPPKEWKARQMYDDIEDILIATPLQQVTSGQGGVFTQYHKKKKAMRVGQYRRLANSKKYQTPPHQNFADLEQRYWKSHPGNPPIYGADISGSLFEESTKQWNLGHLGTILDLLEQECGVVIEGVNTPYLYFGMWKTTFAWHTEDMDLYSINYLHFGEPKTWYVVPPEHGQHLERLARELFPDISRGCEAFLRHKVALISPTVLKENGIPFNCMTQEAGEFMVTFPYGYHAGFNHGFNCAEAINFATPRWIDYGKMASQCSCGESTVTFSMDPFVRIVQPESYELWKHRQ
The assay can be described thus: KDM, RDM and hydroxylation (+16 Da) activities of KDM4E with histone peptide variants by MS. In kind it is biochemical. The conditions noted are these: MALDI–TOF or LC–MS, n = 3. As for the experimental part:
Fig. 3 KDM4E-catalysed hydroxylation occurs at Arg-20 on histone H2a peptide. a LC–MS/MS analysis of H2a(1–20) after KDM4E treatment. Two potential hydroxylation sites, R17 and R20, were identified, with the latter more likely (Supplementary Fig. 9). b Peptide variant studies support Arg-20 hydroxylation; specific activities: H2a(1–20), 0.65 nmol min^−1 mg^−1 SD: 0.073; H2a(1–20) with a C-terminal carboxylic acid (indicated with an -OH), no activity; H2a(1–20)R20A, no activity; H2a(1–20)R20K*, no activity; H2a(1–20)R20Kme3*, 0.44 nmol min^−1 mg^−1 SD: 0.04; H2a(1–20)R3me2a*, 0.51 nmol min^−1 mg^−1 SD: 0.05; H2a(1–20)R3A, 0.37 nmol min^−1 mg^−1 SD: 0.002; H2a(1–21)*, 0.65 nmol min^−1 mg^−1 SD 0.02; H2a(1–25, 0.35 nmol min^−1 mg^−1 SD: 0.044; and H2a(10–29), 0.02 nmol min^−1 mg^−1 SD: 0.013. Measurements employed MALDI–TOF MS except when labelled with*, which employed LC–MS (Supplementary Fig. 10 for representative MS data). n = 3 independent assays. c KDM, RDM and hydroxylation (+16 Da) activities of KDM4E are sequence and context dependent. Histone peptides (H2a, H3, H4) and variants (wild type residue in red, replaced with either K, Kme3, R or Rme2a) were incubated with KDM4E and analysed on MALDI–TOF MS. KDM, RDM and hydroxylation (+16 Da) were detected in some but not all peptides (Supplementary Fig. 10 for representative MS data). (−) No mass changes observed. n = 3 independent assays. See Supplementary Table 6 for conditions. TEXT PRINTED IN THE PICTURE: (c) H2a: K/R replacement K: -; K/R replacement Kme3: KDM/ROH; K/R replacement R: ROH; K/R replacement Rme2a: KDM/ROH | (c) H3: K/R replacement K: -; K/R replacement Kme3: KDM; K/R replacement R: -; K/R replacement Rme2a: RDM | (c) H4: K/R replacement K: -; K/R replacement Kme3: -; K/R replacement R: -; K/R replacement Rme2a: RDM DOUBTS OF THE COPYIST ABOUT THIS PICTURE: Panel c: the table cells are qualitative activity classes (KDM, RDM, ROH, -) for peptide variants, not numbers; it is uncertain whether they count as results. / Panel b: the bar chart prints no values beside the bars, so nothing was taken from it.
MS-based screening assays with peptides and calf thymus histones were as reported; see Supplementary Table 6 for conditions. Time course assays were based on reported procedures. In brief, equal volumes of the enzyme and substrate solutions were combined to initiate the reaction; 10 µL of 2% (v/v) formic acid (HCOOH) in ddH2O or 100% methanol was added to 10 µL of the reaction mixture to quench reactions at different time points. Unless otherwise stated, time course assays were carried out in triplicate. In some cases, LC–MS was used instead of MALDI-TOF MS to avoid a MALDI matrix induced artefact with the hydroxylated product (Supplementary Fig. 16).
Supplementary Figure 10 KDM, RDM and hydroxylation (+16 Da) activities of KDM4E are sequence and context dependent. Representative MALDI–TOF or LC –MS spectra for incubation of KDM4E with: (a) H 2 a( 1–20) w it h a C -terminal carboxylic acid (indicated by -OH ) , (b) H2 a( 1–20 )R2 0A, and (c) H2 a( 1–20 )R2 0K […]
and (p) H4 (1 –21)R3Kme3 showing no mass shift s; Charge st at e of labelled ions: [M + H] 5+ for (a), (c–e), and (g), and [MH] + for (b), (f) a nd (h–p). *L ow le v e l MA L D I–TOF MS peaks indicating ~10% product formation. n = 3 (independent assays). Y-axis: relative abundance (%). See Supplem ent ary T able 6 for assay condit ions.
See Figure 3b for specific activities of H2a peptide panel and Figure 3c for summary of K/R subst it ut ions of wild type H2a, H3 and H4 sequences. The –14 Da peak indicated in (f) a n d (h) is due to a MALDI–T O F MS derived modification – se e Supplementary Figure 16.
[ E nz ym e] [Peptide] [2OG] [Ascorbate] [(NH4)2F e(S O4)2] [TCEP] Buffer pH7.5 Enzyme Cognate substrate (mM) (mM) (mM) (mM) (mM) (mM) [HE PE S]
Supplementary Table 6 Summary of MS assay conditions for substrate screening. These conditions enabled efficient turnover of established substrates. […]

Take “AR T KQ T AR K[ me 3] ST GGKAPR KQ L A [H3(1–21)K9me3, reference compound]”: the “−14 Da mass shift (demethylation)” value is listed as “multiple”.

As for “Ac - SGR [ me 2a ] GKQ GGKAR AKAKT R SSR [H2a(1–20)R3me2a, H2a(1–20)R3me2a without a biotin tag]”, the “+16 Da mass shift (hydroxylation)” value is reported as “+16 Da mass” and the “−14 Da mass shift (demethylation)” value is on record as “multiple −14 Da mass”.
